A lower IC50 marks a more sensitive line; fits outside the tested doses are given as limits. For AUC the same curve is integrated over the 256-fold range of doses and scaled to a fraction; the more sensitive the line, the further below 1. A top dose marked as inferred was derived from the fitted curves, not read from the paper. For some assays here: Where an entry number is given, a second screen of the drug exists; the two often differ.
What was measured:
Assay in all cases: Viability of human cancer cell lines after 72 h of drug (GDSC screen)
[1] = compound: Cn1ncnc1[C@H]1c2n[nH]c(=O)c3cc(F)cc(c23)N[C@@H]1c1ccc(F)cc1 [BMN-673]; conditions: top dose 10 µM; top dose inferred
Description: (§1)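 Human cancer cell lines in 384-well plates, medium with 10% serum, drug for 72 h over a 256-fold dose range (nine 2-fold or five 4-fold steps up to the top dose). Adherent lines were fixed and stained with the nucleic acid dye Syto60, suspension lines read with resazurin; signal relative to control wells, capped at 0 and 100%. One two-parameter sigmoid per drug and line, fitted in a mixed model over all curves with the slope shared within a line.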

[2] = compound: NS(=O)(=O)OC[C@@H]1C[C@@H](n2ccc3c(N[C@H]4CCc5ccccc54)ncnc32)C[C@@H]1O [MLN4924]; conditions: top dose 1 µM; top dose inferred
Description: as §1

[3] = compound: COc1cc(C(=O)NC2CCN(C)CC2)ccc1Nc1ncc2c(n1)N(C1CCCC1)CCC(=O)N2C(C)C [XMD11-85h]; conditions: top dose 10 µM; top dose inferred
Description: as §1

[4] = compound: Cc1cc([C@@H](C)Nc2ccccc2C(=O)O)c2nc(N3CCOCC3)cc(=O)n2c1 [AZD6482]
Description: as §1

[5] = top dose 5 µM, screen: GDSC drug entry 1066, top dose inferred
[6] = top dose 5.12 µM, screen: GDSC drug entry 156

EN (endometrium, adherent)
AUC [1]: 0.946
IC50 [1]: > 10 µM
AUC [2]: 0.85
IC50 [2]: > 1 µM
AUC [3]: 0.982
IC50 [3]: > 10 µM
AUC [4, 5]: 0.961
IC50 [4, 5]: > 5 µM
AUC [4, 6]: 0.984
IC50 [4, 6]: > 5.12 µM

ES3 (Ewing sarcoma, adherent)
AUC [1]: 0.246
IC50 [1]: 0.111 µM
AUC [2]: 0.815
IC50 [2]: 0.584 µM
AUC [3]: 0.883
IC50 [3]: > 10 µM
AUC [4, 5]: 0.937
IC50 [4, 5]: > 5 µM
AUC [4, 6]: 0.953
IC50 [4, 6]: > 5.12 µM

ES4 (Ewing sarcoma, adherent)
AUC [1]: 0.135
IC50 [1]: < 0.0391 µM
AUC [2]: 0.659
IC50 [2]: 0.186 µM
AUC [3]: 0.948
IC50 [3]: > 10 µM
AUC [4, 6]: 0.94
IC50 [4, 6]: > 5.12 µM

ES5 (Ewing sarcoma, adherent)
AUC [1]: 0.604
IC50 [1]: 1.26 µM
AUC [2]: 0.8
IC50 [2]: 0.569 µM
AUC [3]: 0.954
IC50 [3]: > 10 µM
AUC [4, 5]: 0.919
IC50 [4, 5]: > 5 µM
AUC [4, 6]: 0.912
IC50 [4, 6]: > 5.12 µM

ES-2 (ovary, adherent)
AUC [1]: 0.674
IC50 [1]: 1.78 µM
AUC [2]: 0.888
IC50 [2]: 0.885 µM
AUC [3]: 0.955
IC50 [3]: > 10 µM
AUC [4, 5]: 0.985
IC50 [4, 5]: > 5 µM
AUC [4, 6]: 0.991
IC50 [4, 6]: > 5.12 µM

ESO26 (oesophagus, adherent)
AUC [1]: 0.881
IC50 [1]: 9.39 µM
AUC [2]: 0.982
IC50 [2]: > 1 µM
AUC [3]: 0.865
IC50 [3]: 7.98 µM
AUC [4, 5]: 0.984
IC50 [4, 5]: > 5 µM

ESO51 (oesophagus, semi-adherent)
AUC [1]: 0.978
IC50 [1]: > 10 µM
AUC [2]: 0.956
IC50 [2]: > 1 µM
AUC [3]: 0.969
IC50 [3]: > 10 µM
AUC [4, 5]: 0.953
IC50 [4, 5]: > 5 µM

ETK-1 (biliary tract, adherent)
AUC [1]: 0.514
IC50 [1]: 0.685 µM
AUC [2]: 0.831
IC50 [2]: 0.751 µM
AUC [3]: 0.875
IC50 [3]: > 10 µM
AUC [4, 5]: 0.908
IC50 [4, 5]: > 5 µM
AUC [4, 6]: 0.961
IC50 [4, 6]: > 5.12 µM

EW-1 (Ewing sarcoma, semi-adherent)
AUC [1]: 0.231
IC50 [1]: 0.113 µM
AUC [2]: 0.651
IC50 [2]: 0.158 µM
AUC [3]: 0.986
IC50 [3]: > 10 µM
AUC [4, 5]: 0.971
IC50 [4, 5]: > 5 µM
AUC [4, 6]: 0.906
IC50 [4, 6]: > 5.12 µM

EW-7 (Ewing sarcoma, semi-adherent)
AUC [1]: 0.146
IC50 [1]: 0.0606 µM
AUC [2]: 0.809
IC50 [2]: 0.446 µM
AUC [3]: 0.965
IC50 [3]: > 10 µM
AUC [4, 5]: 0.773
IC50 [4, 5]: 1.72 µM
AUC [4, 6]: 0.666

EW-11 (Ewing sarcoma, adherent)
AUC [1]: 0.597
IC50 [1]: 1.25 µM
AUC [2]: 0.788
IC50 [2]: 0.585 µM
AUC [3]: 0.913
IC50 [3]: > 10 µM
AUC [4, 5]: 0.976
IC50 [4, 5]: > 5 µM
AUC [4, 6]: 0.898
IC50 [4, 6]: > 5.12 µM

EW-16 (Ewing sarcoma, adherent)
AUC [1]: 0.488
IC50 [1]: 0.579 µM
AUC [2]: 0.658
IC50 [2]: 0.175 µM
AUC [3]: 0.934
IC50 [3]: > 10 µM
AUC [4, 5]: 0.979
IC50 [4, 5]: > 5 µM
AUC [4, 6]: 0.882
IC50 [4, 6]: > 5.12 µM

EW-22 (Ewing sarcoma, adherent)
AUC [1]: 0.102
IC50 [1]: < 0.0391 µM
AUC [2]: 0.761
IC50 [2]: 0.342 µM
AUC [3]: 0.937
IC50 [3]: > 10 µM
AUC [4, 5]: 0.955
IC50 [4, 5]: > 5 µM

FTC-133 (thyroid, adherent)
AUC [1]: 0.808
IC50 [1]: 5.81 µM
AUC [2]: 0.923
IC50 [2]: > 1 µM
AUC [3]: 0.972
IC50 [3]: > 10 µM
AUC [4, 5]: 0.896
IC50 [4, 5]: > 5 µM
AUC [4, 6]: 0.956
IC50 [4, 6]: > 5.12 µM

Farage (B-cell lymphoma, suspension)
AUC [1]: 0.992
IC50 [1]: > 10 µM
AUC [2]: 0.928
IC50 [2]: > 1 µM
AUC [3]: 0.992
IC50 [3]: > 10 µM
AUC [4, 5]: 0.652
IC50 [4, 5]: 0.755 µM
AUC [4, 6]: 0.827
IC50 [4, 6]: 2.4 µM

GB-1 (glioma, adherent)
AUC [1]: 0.507
IC50 [1]: 0.655 µM
AUC [2]: 0.749
IC50 [2]: 0.376 µM
AUC [3]: 0.94
IC50 [3]: > 10 µM
AUC [4, 5]: 0.98
IC50 [4, 5]: > 5 µM
AUC [4, 6]: 0.901
IC50 [4, 6]: > 5.12 µM

GI-1 (glioma, adherent)
AUC [1]: 0.298
IC50 [1]: 0.174 µM
AUC [2]: 0.699
IC50 [2]: 0.221 µM
AUC [3]: 0.945
IC50 [3]: > 10 µM
AUC [4, 5]: 0.875
IC50 [4, 5]: 4.55 µM
AUC [4, 6]: 0.707
IC50 [4, 6]: 1.2 µM

GI-ME-N (neuroblastoma, adherent)
AUC [1]: 0.591
IC50 [1]: 1.21 µM
AUC [2]: 0.728
IC50 [2]: 0.358 µM
AUC [3]: 0.78
IC50 [3]: 5.77 µM
AUC [4, 5]: 0.918
IC50 [4, 5]: > 5 µM
AUC [4, 6]: 0.881
IC50 [4, 6]: > 5.12 µM

GR-ST (lymphoblastic leukaemia, suspension)
AUC [1]: 0.367
IC50 [1]: 0.248 µM
AUC [2]: 0.861
IC50 [2]: > 1 µM
AUC [3]: 0.872
IC50 [3]: > 10 µM
AUC [4, 5]: 0.841
IC50 [4, 5]: 4.61 µM
AUC [4, 6]: 0.902
IC50 [4, 6]: > 5.12 µM

GT3TKB (stomach, adherent)
AUC [1]: 0.319
IC50 [1]: 0.21 µM
AUC [2]: 0.387
IC50 [2]: 0.0318 µM
AUC [3]: 0.965
IC50 [3]: > 10 µM
AUC [4, 5]: 0.866
IC50 [4, 5]: 3.6 µM
AUC [4, 6]: 0.983
IC50 [4, 6]: > 5.12 µM

H9 (lymphoid neoplasm, suspension)
AUC [1]: 0.787
IC50 [1]: 3.55 µM
AUC [2]: 0.944
IC50 [2]: > 1 µM
AUC [3]: 0.887
IC50 [3]: 7.76 µM
AUC [4, 5]: 0.992
IC50 [4, 5]: > 5 µM
AUC [4, 6]: 0.989
IC50 [4, 6]: > 5.12 µM

H290 (mesothelioma, adherent)
AUC [1]: 0.644
IC50 [1]: 1.5 µM
AUC [2]: 0.586
IC50 [2]: 0.105 µM
AUC [3]: 0.945
IC50 [3]: > 10 µM
AUC [4, 5]: 0.958
IC50 [4, 5]: > 5 µM
AUC [4, 6]: 0.983
IC50 [4, 6]: > 5.12 µM

H513 (mesothelioma, semi-adherent)
AUC [1]: 0.894
IC50 [1]: > 10 µM
AUC [2]: 0.91
IC50 [2]: > 1 µM
AUC [3]: 0.984
IC50 [3]: > 10 µM
AUC [4, 5]: 0.962
IC50 [4, 5]: > 5 µM
AUC [4, 6]: 0.98
IC50 [4, 6]: > 5.12 µM

H2591 (mesothelioma, adherent)
AUC [1]: 0.926
IC50 [1]: > 10 µM
AUC [2]: 0.719
IC50 [2]: 0.32 µM
AUC [3]: 0.971
IC50 [3]: > 10 µM
AUC [4, 5]: 0.908
IC50 [4, 5]: > 5 µM
AUC [4, 6]: 0.933
IC50 [4, 6]: > 5.12 µM

H2595 (mesothelioma, adherent)
AUC [1]: 0.885
IC50 [1]: > 10 µM
AUC [2]: 0.928
IC50 [2]: > 1 µM
AUC [3]: 0.969
IC50 [3]: > 10 µM
AUC [4, 5]: 0.981
IC50 [4, 5]: > 5 µM
AUC [4, 6]: 0.917
IC50 [4, 6]: > 5.12 µM

H2731 (mesothelioma, adherent)
AUC [1]: 0.832
IC50 [1]: 7.74 µM
AUC [2]: 0.839
IC50 [2]: 0.828 µM
AUC [3]: 0.968
IC50 [3]: > 10 µM
AUC [4, 5]: 0.954
IC50 [4, 5]: > 5 µM
AUC [4, 6]: 0.953
IC50 [4, 6]: > 5.12 µM
